B1: HC 1251_A06 (wt)/LC 1275_C10 (wt) (antibody, human IgG1, kappa)
heavy: MQVQLVESGGGVVQPGRSLRLSCAASGFDFSSYGMHWVRQAPDKGLEWVAVIWDDGSDRYYADSVKGRFTISRDNSKNTLYLQMNSLRAEDTAVYYCARGGTRVLGAIHGTDVWGQGTTVTVSSASTKGPSVFPLAPSSKSTSGGTAALGCLVEDYFPEPATVSWNSGALTSGVHTFPAVLQSSGLYSLSSVVTVPSSSLGTQTYICNVNHKPSNTKVDKKV[human IgG1 Fc omitted]GGSHHHHHH
light: MDIQMTQSPSSLSASVGDRVTITCRASQGVSSWLAWYQQKPEKAPKSLIYSARYLQSGVPSRFSGSGSGTDFTLTISSLQPEDFATYYCQQYNLYPLTFGGGTKVEIKRTVAAPSVFIFPPSDEQLKSGTASVVCLLNNFYPREAKVQWKVDNALQSGNSQESVTEQDSKDSTYSLSSTLTLSKADYEKHKVYACEVTHQGLSSPVTKSFNRGEC
B2: HC 1251_A06 (wt)/LC 1337_A09 (wt) (antibody, human IgG1, kappa)
heavy: MQVQLVESGGGVVQPGRSLRLSCAASGFDFSSYGMHWVRQAPDKGLEWVAVIWDDGSDRYYADSVKGRFTISRDNSKNTLYLQMNSLRAEDTAVYYCARGGTRVLGAIHGTDVWGQGTTVTVSSASTKGPSVFPLAPSSKSTSGGTAALGCLVEDYFPEPATVSWNSGALTSGVHTFPAVLQSSGLYSLSSVVTVPSSSLGTQTYICNVNHKPSNTKVDKKV[human IgG1 Fc omitted]GGSHHHHHH
light: MDIQMTQSPSSLSASVGDRVTITCRASQGIGSWLAWYQQKPEKAPKSLIYAADRLQSGVPSRFSGSGSGTDFTLTISSLQPEDFATYYCQQYHTYPLTFGGGTKVEIKRTVAAPSVFIFPPSDEQLKSGTASVVCLLNNFYPREAKVQWKVDNALQSGNSQESVTEQDSKDSTYSLSSTLTLSKADYEKHKVYACEVTHQGLSSPVTKSFNRGEC
B3: HC 1251_A06 (wt)/LC 1337_A10 (g) (antibody, human IgG1, kappa)
heavy: MQVQLVESGGGVVQPGRSLRLSCAASGFDFSSYGMHWVRQAPDKGLEWVAVIWDDGSDRYYADSVKGRFTISRDNSKNTLYLQMNSLRAEDTAVYYCARGGTRVLGAIHGTDVWGQGTTVTVSSASTKGPSVFPLAPSSKSTSGGTAALGCLVEDYFPEPATVSWNSGALTSGVHTFPAVLQSSGLYSLSSVVTVPSSSLGTQTYICNVNHKPSNTKVDKKV[human IgG1 Fc omitted]GGSHHHHHH
light: MDIQMTQSPSSVSASVGDRVTITCRASQGISSWVAWYQQKPGKAPKLLIYGSSRLQSGVPSRFSGSGSGTDFTLTISSLQPEDFATYYCQQYNTYPLTFGGGTKVEIKRTVAAPSVFIFPPSDEQLKSGTASVVCLLNNFYPREAKVQWKVDNALQSGNSQESVTEQDSKDSTYSLSSTLTLSKADYEKHKVYACEVTHQGLSSPVTKSFNRGEC
B4: HC 1251_A06 (wt)/LC 1337_A09 (g) (antibody, human IgG1, kappa)
heavy: MQVQLVESGGGVVQPGRSLRLSCAASGFDFSSYGMHWVRQAPDKGLEWVAVIWDDGSDRYYADSVKGRFTISRDNSKNTLYLQMNSLRAEDTAVYYCARGGTRVLGAIHGTDVWGQGTTVTVSSASTKGPSVFPLAPSSKSTSGGTAALGCLVEDYFPEPATVSWNSGALTSGVHTFPAVLQSSGLYSLSSVVTVPSSSLGTQTYICNVNHKPSNTKVDKKV[human IgG1 Fc omitted]GGSHHHHHH
light: MDIQMTQSPSSVSASVGDRVTITCRASQGIGSWLAWYQQKPGKAPKLLIYAADRLQSGVPSRFSGSGSGTDFTLTISSLQPEDFATYYCQQYHTYPLTFGGGTKVEIKRTVAAPSVFIFPPSDEQLKSGTASVVCLLNNFYPREAKVQWKVDNALQSGNSQESVTEQDSKDSTYSLSSTLTLSKADYEKHKVYACEVTHQGLSSPVTKSFNRGEC
B5: HC 1251_B08 (wt)/LC 1275_C10 (wt) (antibody, human IgG1, kappa)
heavy: MQVQLVESGGGVVQPGRSLRLSCAASGFNFSDYGMHWVRQAPDKGLEWVAVIWYDGSISYYADSVKGRFTISRDNSKNTLYLQMNSLRAEDTAVYYCARGGTVEHGAVYGTDVWGQGATVTVSS[human IgG1 constant region omitted]GGSHHHHHH
light: MDIQMTQSPSSLSASVGDRVTITCRASQGVSSWLAWYQQKPEKAPKSLIYSARYLQSGVPSRFSGSGSGTDFTLTISSLQPEDFATYYCQQYNLYPLTFGGGTKVEIKRTVAAPSVFIFPPSDEQLKSGTASVVCLLNNFYPREAKVQWKVDNALQSGNSQESVTEQDSKDSTYSLSSTLTLSKADYEKHKVYACEVTHQGLSSPVTKSFNRGEC
B6: HC 1251_B08 (wt)/LC 1275_C10 (g) (antibody, human IgG1, kappa)
heavy: MQVQLVESGGGVVQPGRSLRLSCAASGFNFSDYGMHWVRQAPDKGLEWVAVIWYDGSISYYADSVKGRFTISRDNSKNTLYLQMNSLRAEDTAVYYCARGGTVEHGAVYGTDVWGQGATVTVSS[human IgG1 constant region omitted]GGSHHHHHH
light: MDIQMTQSPSSVSASVGDRVTITCRASQGVSSWLAWYQQKPGKAPKLLIYSARYLQSGVPSRFSGSGSGTDFTLTISSLQPEDFATYYCQQYNLYPLTFGGGTKVEIKRTVAAPSVFIFPPSDEQLKSGTASVVCLLNNFYPREAKVQWKVDNALQSGNSQESVTEQDSKDSTYSLSSTLTLSKADYEKHKVYACEVTHQGLSSPVTKSFNRGEC
B7: HC 1251_A06 (wt)/LC 1337_A07 (wt) (antibody, human IgG1, kappa)
heavy: MQVQLVESGGGVVQPGRSLRLSCAASGFDFSSYGMHWVRQAPDKGLEWVAVIWDDGSDRYYADSVKGRFTISRDNSKNTLYLQMNSLRAEDTAVYYCARGGTRVLGAIHGTDVWGQGTTVTVSSASTKGPSVFPLAPSSKSTSGGTAALGCLVEDYFPEPATVSWNSGALTSGVHTFPAVLQSSGLYSLSSVVTVPSSSLGTQTYICNVNHKPSNTKVDKKV[human IgG1 Fc omitted]GGSHHHHHH
light: MDIQMTQSPSSLSASVGDRVTITCRASQGISSWVAWYQQKPEKAPKSLIYGASRLQSGVPSRFSGSGSGTDFTLTISSLQPEDFATYYCQQYHTYPLTFGGGTKVEIKRTVAAPSVFIFPPSDEQLKSGTASVVCLLNNFYPREAKVQWKVDNALQSGNSQESVTEQDSKDSTYSLSSTLTLSKADYEKHKVYACEVTHQGLSSPVTKSFNRGEC
B8: HC 1251_A06 (wt)/LC 1337_A07 (g) (antibody, human IgG1, kappa)
heavy: MQVQLVESGGGVVQPGRSLRLSCAASGFDFSSYGMHWVRQAPDKGLEWVAVIWDDGSDRYYADSVKGRFTISRDNSKNTLYLQMNSLRAEDTAVYYCARGGTRVLGAIHGTDVWGQGTTVTVSSASTKGPSVFPLAPSSKSTSGGTAALGCLVEDYFPEPATVSWNSGALTSGVHTFPAVLQSSGLYSLSSVVTVPSSSLGTQTYICNVNHKPSNTKVDKKV[human IgG1 Fc omitted]GGSHHHHHH
light: MDIQMTQSPSSVSASVGDRVTITCRASQGISSWVAWYQQKPGKAPKLLIYGASRLQSGVPSRFSGSGSGTDFTLTISSLQPEDFATYYCQQYHTYPLTFGGGTKVEIKRTVAAPSVFIFPPSDEQLKSGTASVVCLLNNFYPREAKVQWKVDNALQSGNSQESVTEQDSKDSTYSLSSTLTLSKADYEKHKVYACEVTHQGLSSPVTKSFNRGEC
B9: HC 1251_B08 (wt)/LC 1337_A09 (wt) (antibody, human IgG1, kappa)
heavy: MQVQLVESGGGVVQPGRSLRLSCAASGFNFSDYGMHWVRQAPDKGLEWVAVIWYDGSISYYADSVKGRFTISRDNSKNTLYLQMNSLRAEDTAVYYCARGGTVEHGAVYGTDVWGQGATVTVSS[human IgG1 constant region omitted]GGSHHHHHH
light: MDIQMTQSPSSLSASVGDRVTITCRASQGIGSWLAWYQQKPEKAPKSLIYAADRLQSGVPSRFSGSGSGTDFTLTISSLQPEDFATYYCQQYHTYPLTFGGGTKVEIKRTVAAPSVFIFPPSDEQLKSGTASVVCLLNNFYPREAKVQWKVDNALQSGNSQESVTEQDSKDSTYSLSSTLTLSKADYEKHKVYACEVTHQGLSSPVTKSFNRGEC
B10: HC 1251_B08 (wt)/LC 1337_A09 (g) (antibody, human IgG1, kappa)
heavy: MQVQLVESGGGVVQPGRSLRLSCAASGFNFSDYGMHWVRQAPDKGLEWVAVIWYDGSISYYADSVKGRFTISRDNSKNTLYLQMNSLRAEDTAVYYCARGGTVEHGAVYGTDVWGQGATVTVSS[human IgG1 constant region omitted]GGSHHHHHH
light: MDIQMTQSPSSVSASVGDRVTITCRASQGIGSWLAWYQQKPGKAPKLLIYAADRLQSGVPSRFSGSGSGTDFTLTISSLQPEDFATYYCQQYHTYPLTFGGGTKVEIKRTVAAPSVFIFPPSDEQLKSGTASVVCLLNNFYPREAKVQWKVDNALQSGNSQESVTEQDSKDSTYSLSSTLTLSKADYEKHKVYACEVTHQGLSSPVTKSFNRGEC
B11: HC 1251_A06 (wt)/LC 1337_A10 (wt) (antibody, human IgG1, kappa)
heavy: MQVQLVESGGGVVQPGRSLRLSCAASGFDFSSYGMHWVRQAPDKGLEWVAVIWDDGSDRYYADSVKGRFTISRDNSKNTLYLQMNSLRAEDTAVYYCARGGTRVLGAIHGTDVWGQGTTVTVSSASTKGPSVFPLAPSSKSTSGGTAALGCLVEDYFPEPATVSWNSGALTSGVHTFPAVLQSSGLYSLSSVVTVPSSSLGTQTYICNVNHKPSNTKVDKKV[human IgG1 Fc omitted]GGSHHHHHH
light: MDIQMTQSPSSLSASVGDRVTITCRASQGISSWVAWYQQKPEKAPKSLIYGSSRLQSGVPSRFSGSGSGTDFTLTISSLQPEDFATYYCQQYNTYPLTFGGGTKVEIKRTVAAPSVFIFPPSDEQLKSGTASVVCLLNNFYPREAKVQWKVDNALQSGNSQESVTEQDSKDSTYSLSSTLTLSKADYEKHKVYACEVTHQGLSSPVTKSFNRGEC
B12: HC 1251_A06 (wt)/LC 1275_C10 (g) (antibody, human IgG1, kappa)
heavy: MQVQLVESGGGVVQPGRSLRLSCAASGFDFSSYGMHWVRQAPDKGLEWVAVIWDDGSDRYYADSVKGRFTISRDNSKNTLYLQMNSLRAEDTAVYYCARGGTRVLGAIHGTDVWGQGTTVTVSSASTKGPSVFPLAPSSKSTSGGTAALGCLVEDYFPEPATVSWNSGALTSGVHTFPAVLQSSGLYSLSSVVTVPSSSLGTQTYICNVNHKPSNTKVDKKV[human IgG1 Fc omitted]GGSHHHHHH
light: MDIQMTQSPSSVSASVGDRVTITCRASQGVSSWLAWYQQKPGKAPKLLIYSARYLQSGVPSRFSGSGSGTDFTLTISSLQPEDFATYYCQQYNLYPLTFGGGTKVEIKRTVAAPSVFIFPPSDEQLKSGTASVVCLLNNFYPREAKVQWKVDNALQSGNSQESVTEQDSKDSTYSLSSTLTLSKADYEKHKVYACEVTHQGLSSPVTKSFNRGEC

In the assay the target is CD74 on CD74 positive SU-DHL-6 cells, P04233. In words: cell-based or functional assay.
Consider B1, for which the 2ND ADC CELL KILL ACTIVITY IC50 turned out to be 0.008 nM.

Consider B2, for which the 2ND ADC CELL KILL ACTIVITY IC50 is 0.01 nM.

Turning to B3, the 2ND ADC CELL KILL ACTIVITY IC50 amounted to 0.011 nM.

In turn, B4 had a 2ND ADC CELL KILL ACTIVITY IC50 of 0.011 nM.

In turn, B5 had a 2ND ADC CELL KILL ACTIVITY IC50 of 0.01 nM.

B6 returned a 2ND ADC CELL KILL ACTIVITY IC50 of 0.013 nM.

Regarding B7, the 2ND ADC CELL KILL ACTIVITY IC50 was 0.007 nM.

Consider B8, for which the 2ND ADC CELL KILL ACTIVITY IC50 is 0.01 nM.

In turn, B9 registered a 2ND ADC CELL KILL ACTIVITY IC50 of 0.006 nM.

B10 had a 2ND ADC CELL KILL ACTIVITY IC50 of 0.016 nM.

As to B11, the 2ND ADC CELL KILL ACTIVITY IC50 stood at 0.006 nM.

In the case of B12, the 2ND ADC CELL KILL ACTIVITY IC50 amounted to 0.01 nM.
